# Source: the supplement of paper PMC12067093, “Discovery and optimisation of a covalent ligand for TRIM25 and its application to targeted protein ubiquitination” (Chemical Science, 2025)
# About 21,000 targets were measured; listed, in parts, are those with the largest changes and a random draw of the rest.
# Compound: Cc1cc(ccc1-c1ccccc1)C(=O)N1CCCN(CC1)C(=O)CCl [compound 10]
# Experiment: probe-labelled cysteine peptide fold change vs DMSO (competition) (log2 fold change); higher = less target engagement (more negative = stronger competition)
# Conditions: THP-1, incubation time: 4 h
# 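Further: competitive profiling in live THP-1 cells: cysteine peptides tagged with an iodoacetamide desthiobiotin (IA-DTB) probe, intensity after compound treatment relative to DMSO-treated cells.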
# Chain of UniProt P50336 (P50336 whole entry, looked up): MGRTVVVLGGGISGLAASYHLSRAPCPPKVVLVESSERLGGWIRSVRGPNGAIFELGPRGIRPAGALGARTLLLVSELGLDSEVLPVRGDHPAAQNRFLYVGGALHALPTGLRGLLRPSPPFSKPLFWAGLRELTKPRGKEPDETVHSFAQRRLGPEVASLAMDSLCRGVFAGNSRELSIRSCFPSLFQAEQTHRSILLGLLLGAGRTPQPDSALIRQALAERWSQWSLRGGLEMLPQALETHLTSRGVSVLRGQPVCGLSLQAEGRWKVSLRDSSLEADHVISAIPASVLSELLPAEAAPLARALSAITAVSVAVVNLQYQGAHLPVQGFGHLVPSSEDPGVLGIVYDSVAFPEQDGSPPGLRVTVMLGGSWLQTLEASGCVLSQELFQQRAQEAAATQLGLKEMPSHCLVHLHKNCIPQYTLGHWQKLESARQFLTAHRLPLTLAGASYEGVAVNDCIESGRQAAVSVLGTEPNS
target,measurement,setting,value
PPOX_P50336_418_NCIPQYTLGHWQK (UniProt P50336),probe-labelled cysteine peptide fold change,10 µM,-0.0557
same,probe-labelled cysteine peptide fold change,50 µM,-0.474
